No constants are given. Whether binding was seen depends on the method and setting. In cells and extracts the contact can be indirect. Some entries that bind do so weakly or less than the wild type. For some assays here: Where a sequence is shown, tags or fusion partners need not be part of it.
T1: Clu1-TEV-GFP (S. cerevisiae) (UniProt Q03690)
T1 sequence: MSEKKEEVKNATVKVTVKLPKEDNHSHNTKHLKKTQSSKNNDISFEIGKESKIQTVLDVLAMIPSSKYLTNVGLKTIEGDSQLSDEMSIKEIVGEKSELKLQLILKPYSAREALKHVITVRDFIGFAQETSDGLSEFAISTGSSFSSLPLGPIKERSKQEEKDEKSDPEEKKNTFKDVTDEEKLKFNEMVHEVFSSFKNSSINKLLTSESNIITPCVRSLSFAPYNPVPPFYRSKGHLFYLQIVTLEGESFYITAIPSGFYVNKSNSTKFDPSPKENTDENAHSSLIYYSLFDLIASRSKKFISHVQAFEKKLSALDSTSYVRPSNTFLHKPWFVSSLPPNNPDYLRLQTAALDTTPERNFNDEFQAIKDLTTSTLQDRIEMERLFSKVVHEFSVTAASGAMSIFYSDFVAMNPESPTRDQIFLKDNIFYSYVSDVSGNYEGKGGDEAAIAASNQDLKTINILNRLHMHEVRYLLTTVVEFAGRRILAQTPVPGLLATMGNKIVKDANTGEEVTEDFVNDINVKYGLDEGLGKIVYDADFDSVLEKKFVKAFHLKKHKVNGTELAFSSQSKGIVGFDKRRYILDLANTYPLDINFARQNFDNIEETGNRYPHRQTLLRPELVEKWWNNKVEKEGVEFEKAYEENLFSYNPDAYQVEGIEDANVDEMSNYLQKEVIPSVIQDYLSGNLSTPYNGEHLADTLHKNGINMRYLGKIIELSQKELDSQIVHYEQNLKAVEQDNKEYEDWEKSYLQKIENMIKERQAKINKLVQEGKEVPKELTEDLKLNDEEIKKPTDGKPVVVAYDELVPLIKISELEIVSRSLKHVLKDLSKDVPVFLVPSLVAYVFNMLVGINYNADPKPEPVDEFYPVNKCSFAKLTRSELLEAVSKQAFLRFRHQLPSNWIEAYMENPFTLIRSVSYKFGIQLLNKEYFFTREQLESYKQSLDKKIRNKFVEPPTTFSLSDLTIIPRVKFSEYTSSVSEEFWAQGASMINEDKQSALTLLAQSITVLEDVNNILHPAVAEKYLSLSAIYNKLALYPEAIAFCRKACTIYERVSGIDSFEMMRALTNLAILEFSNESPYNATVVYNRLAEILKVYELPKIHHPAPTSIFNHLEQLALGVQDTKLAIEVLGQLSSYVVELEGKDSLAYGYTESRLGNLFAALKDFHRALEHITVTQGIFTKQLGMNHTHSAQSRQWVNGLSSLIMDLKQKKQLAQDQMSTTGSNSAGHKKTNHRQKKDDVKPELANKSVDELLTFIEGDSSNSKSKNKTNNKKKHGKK

Sequences of proteins named here, by UniProt entry; tags and fusion partners are left off.
UniProt P14126: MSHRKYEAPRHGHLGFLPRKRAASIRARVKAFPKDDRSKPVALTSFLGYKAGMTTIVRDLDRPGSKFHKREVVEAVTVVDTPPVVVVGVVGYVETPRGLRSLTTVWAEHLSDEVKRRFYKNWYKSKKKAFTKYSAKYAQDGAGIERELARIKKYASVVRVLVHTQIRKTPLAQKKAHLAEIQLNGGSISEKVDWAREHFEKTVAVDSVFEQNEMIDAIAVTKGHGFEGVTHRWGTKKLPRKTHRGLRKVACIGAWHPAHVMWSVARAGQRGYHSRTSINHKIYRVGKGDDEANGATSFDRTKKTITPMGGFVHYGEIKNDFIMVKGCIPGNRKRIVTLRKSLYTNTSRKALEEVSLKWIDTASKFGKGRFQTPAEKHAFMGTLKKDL
UniProt P38431: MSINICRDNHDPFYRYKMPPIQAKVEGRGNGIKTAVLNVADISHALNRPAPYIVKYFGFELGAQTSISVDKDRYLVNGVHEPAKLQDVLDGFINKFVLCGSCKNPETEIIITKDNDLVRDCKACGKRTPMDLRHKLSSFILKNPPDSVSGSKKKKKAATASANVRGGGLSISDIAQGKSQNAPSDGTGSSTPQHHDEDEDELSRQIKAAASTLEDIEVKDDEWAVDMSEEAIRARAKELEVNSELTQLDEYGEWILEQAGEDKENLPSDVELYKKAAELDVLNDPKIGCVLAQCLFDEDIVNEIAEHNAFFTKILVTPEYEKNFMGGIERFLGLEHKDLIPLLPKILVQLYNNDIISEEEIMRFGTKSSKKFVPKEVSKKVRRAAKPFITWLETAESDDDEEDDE

T2: Clu1-VN (S. cerevisiae) (UniProt Q03690)
T2 sequence: T1 sequence

B1: Rpl17b-VC (protein, UniProt P46990 1-184)
chain: MARYGATSTNPAKSASARGSYLRVSFKNTRETAQAINGWELTKAQKYLDQVLDHQRAIPFRRFNSSIGRTAQGKEFGVTKARWPAKSVKFVQGLLQNAAANAEAKGLDATKLYVSHIQVNQAPKQRRRTYRAHGRINKYESSPSHIELVVTEKEEAVAKAAEKKVVRLTSRQRGRIAAQKRISA
B2: Aco1-VC (protein, UniProt P19414 17-778)
chain: ATVSNLTRDSKVNQNLLEDHSFINYKQNVETLDIVRKRLNRPFTYAEKILYGHLDDPHGQDIQRGVSYLKLRPDRVACQDATAQMAILQFMSAGLPQVAKPVTVHCDHLIQAQVGGEKDLKRAIDLNKEVYDFLASATAKYNMGFWKPGSGIIHQIVLENYAFPGALIIGTDSHTPNAGGLGQLAIGVGGADAVDVMAGRPWELKAPKILGVKLTGKMNGWTSPKDIILKLAGITTVKGGTGKIVEYFGDGVDTFSATGMGTICNMGAEIGATTSVFPFNKSMIEYLEATGRGKIADFAKLYHKDLLSADKDAEYDEVVEIDLNTLEPYINGPFTPDLATPVSKMKEVAVANNWPLDVRVGLIGSCTNSSYEDMSRSASIVKDAAAHGLKSKTIFTVTPGSEQIRATIERDGQLETFKEFGGIVLANACGPCIGQWDRRDIKKGDKNTIVSSYNRNFTSRNDGNPQTHAFVASPELVTAFAIAGDLRFNPLTDKLKDKDGNEFMLKPPHGDGLPQRGYDAGENTYQAPPADRSTVEVKVSPTSDRLQLLKPFKPWDGKDAKDMPILIKAVGKTTTDHISMAGPWLKYRGHLENISNNYMIGAINAENKKANCVKNVYTGEYKGVPDTARDYRDQGIKWVVIGDENFGEGSSREHAALEPRFLGGFAIITKSFARIHETNLKKQGLLPLNFKNPADYDKINPDDRIDILGLAELAPGKPVTMRVHPKNGKPWDAVLTHTFNDEQIEWFKYGSALNKIKADEKK
B3: Scp160-VC (protein, UniProt P06105 1-1222)
chain: MSEEQTAIDSPPSTVEGSVETVTTIDSPSTTASTIAATAEEHPQLEKKPTPLPSLKDLPSLGSNAAFANVKVSWGPNMKPAVSNSPSPSPSAPSLTTGLGAKRMRSKNIQEAFTLDLQSQLSITKPELSRIVQSVKKNHDVSVESTLSKNARTFLVSGVAANVHEAKRELVKKLTKPINAVIEVPSKCKASIIGSGGRTIREISDAYEVKINVSKEVNENSYDEDMDDTTSNVSLFGDFESVNLAKAKILAIVKEETKNATIKLVVEDEKYLPYIDVSEFASDEGDEEVKVQFYKKSGDIVILGPREKAKATKTSIQDYLKKLASNLDEEKVKIPSKFQFLIDAEELKEKYNVIVTFPSTPDDELVSFVGLRDKVGEAITYARSSSKSYVVESLDISKAHSKNLTHAKNLIMYFTKYSVLKGLEESHPNVKISLPSIQSLPTAETVTIHISAKSDEANDIKAVRKELISFVNNIPPSETLVITDLDYELFGGSIKHCLLASESSVAFVQFGDYYPNDNSILLVALTEDEDFKPSIEEIQASLNKANESLNSLRTKQNNMETKTYEFSEEVQDSLFKPSSATWKLIMEDISEQEGHLQIKLHTPEENQLTVRGDEKAAKAANKIFESILNSPSSKSKMTVNIPANSVARLIGNKGSNLQQIREKFACQIDIPNEENNNASKDKTVEVTLTGLEYNLTHAKKYLAAEAKKWADIITKELIVPVKFHGSLIGPHGTYRNRLQEKYNVFINFPRDNEIVTIRGPSRGVNKAHEELKALLDFEMENGHKMVINVPAEHVPRIIGKNGDNINDIRAEYGVEMDFLQKSTDPKAQETGEVELEITGSRQNIKDAAKRVESIVAEASDFVTEVLKIDHKYHKSIVGSGGHILREIISKAGGEEIRNKSVDIPNADSENKDITVQGPQKFVKKVVEEINKIVKDAENSVTKTIDIPAERKGALIGPGGIVRRQLESEFNINLFVPNKDDPSGKITITGAPENVEKAEKKILNEIIRENFDREVDVPASIYEYVSERGAFIQKLRMDLSVNVRFGNTSKKANKLARAPIEIPLEKVCGSTEGENAEKTKFTIEEVGAPTSSEEGDITMRLTYEPIDLSSILSDGEEKEVTKDTSNDSAKKEEALDTAVKLIKERIAKAPSATYAGYVWGADTRRFNMIVGPGGSNIKKIREAADVIINVPRKSDKVNDVVYIRGTKAGVEKAGEMVLKSLRR
B4: Sod2-VC (protein, UniProt P00447 27-233)
chain: KVTLPDLKWDFGALEPYISGQINELHYTKHHQTYVNGFNTAVDQFQELSDLLAKEPSPANARKMIAIQQNIKFHGGGFTNHCLFWENLAPESQGGGEPPTGALAKAIDEQFGSLDELIKLTNTKLAGVQGSGWAFIVKNLSNGGKLDVVQTYNQDTVTGPLVPLVAIDAWEHAYYLQYQNKKADYFKAIWNVVNWKEASRRFDAGKI
B5: Tif3-VC (protein, UniProt P34167 1-436)
chain: MAPPKKTVKKMDLTSFLNDDTFGSSWAEEDVDLNKITIPIETANANTIPLSELAHAKNNSNNTRSGGFGGSFGGRSRLDPALGGGSSDRREEYPVPDAPPYRAVINNIPWDITPEGVQAWVEDGLVKPEAVEEVVLPKNLRDPTRLKGNAFVTLKERADLVAVLKFNGTKLNERTVYVSVAAPRRGGGADVDWSSARGSNFQGDGREDAPDLDWGAARGSNFRGPRREREEVDIDWTAARGSNFQGSSRPPRREREEVDIDWSAARGSNFQGSSRPPRREREEPDIDWSAARGSNFQSSSRPPRREREEPDIDWSAARGSNFQSSSRPPRREREKEEPALDWGAARGAQFGKPQQTKNTYKDRSLTNKKTTDEQPKIQKSVYDVLRTEDDDEDEEAEKQNGDAKENKVDAAVEKLQDKTAQLTVEDGDNWEVVGKK
B6: Pyc2-VC (protein, UniProt P32327 1-1180)
chain: MSSSKKLAGLRDNFSLLGEKNKILVANRGEIPIRIFRSAHELSMRTIAIYSHEDRLSMHRLKADEAYVIGEEGQYTPVGAYLAMDEIIEIAKKHKVDFIHPGYGFLSENSEFADKVVKAGITWIGPPAEVIDSVGDKVSARHLAARANVPTVPGTPGPIETVQEALDFVNEYGYPVIIKAAFGGGGRGMRVVREGDDVADAFQRATSEARTAFGNGTCFVERFLDKPKHIEVQLLADNHGNVVHLFERDCSVQRRHQKVVEVAPAKTLPREVRDAILTDAVKLAKVCGYRNAGTAEFLVDNQNRHYFIEINPRIQVEHTITEEITGIDIVSAQIQIAAGATLTQLGLLQDKITTRGFSIQCRITTEDPSKNFQPDTGRLEVYRSAGGNGVRLDGGNAYAGATISPHYDSMLVKCSCSGSTYEIVRRKMIRALIEFRIRGVKTNIPFLLTLLTNPVFIEGTYWTTFIDDTPQLFQMVSSQNRAQKLLHYLADLAVNGSSIKGQIGLPKLKSNPSVPHLHDAQGNVINVTKSAPPSGWRQVLLEKGPSEFAKQVRQFNGTLLMDTTWRDAHQSLLATRVRTHDLATIAPTTAHALAGAFALECWGGATFDVAMRFLHEDPWERLRKLRSLVPNIPFQMLLRGANGVAYSSLPDNAIDHFVKQAKDNGVDIFRVFDALNDLEQLKVGVNAVKKAGGVVEATVCYSGDMLQPGKKYNLDYYLEVVEKIVQMGTHILGIKDMAGTMKPAAAKLLIGSLRTRYPDLPIHVHSHDSAGTAVASMTACALAGADVVDVAINSMSGLTSQPSINALLASLEGNIDTGINVEHVRELDAYWAEMRLLYSCFEADLKGPDPEVYQHEIPGGQLTNLLFQAQQLGLGEQWAETKRAYREANYLLGDIVKVTPTSKVVGDLAQFMVSNKLTSDDIRRLANSLDFPDSVMDFFEGLIGQPYGGFPEPLRSDVLRNKRRKLTCRPGLELEPFDLEKIREDLQNRFGDIDECDVASYNMYPRVYEDFQKIRETYGDLSVLPTKNFLAPAEPDEEIEVTIEQGKTLIIKLQAVGDLNKKTGQREVYFELNGELRKIRVADKSQNIQSVAKPKADVHDTHQIGAPMAGVIIEVKVHKGSLVKKGESIAVLSAMKMEMVVSSPADGQVKDVFIKDGESVDASDLLVVLEEETLPPSQKK

molecular target: T1, Clu1-TEV-GFP (S. cerevisiae); experiment: co-IP; GFP immunoprecipitation (Dynabeads with mouse monoclonal GFP antibody) from log phase lysates of cells expressing Clu1-TEV-GFP or GFP, PLB with CHX; immunoblot for Rpl3

binding	Molecule
binds	ribosomal protein Rpl3 (from UniProt P14126 1-387)

molecular target: T2, Clu1-VN (S. cerevisiae); experiment: split reporter; BiFC in diploid yeast co-expressing Clu1-VN and protein-VC; cells in glucose media at mid-log phase or shifted to glycerol media for 24 h; Venus fluorescence by confocal microscopy

binding	Molecule
binds	Tif5-VC (from UniProt P38431 1-405)
binds	B1
binds	B2
binds	B3
no binding	B4
binds	B5
no binding	B6

Reference: article PMC12262889
